Hit rate of the full screen: of about 410,000 compounds, about 7,200 (1.8%) were called active. Inconclusive means that the source gave no clear call. Such entries were picked first, then a sample of the others. Calls follow the shape of the dose curve; as a rule, active = well fitted activation curve with a large enough effect; inconclusive = small, poorly fitted or top-dose-only effect, or another doubt; inactive = no such curve, though single readings can be large or run the other way. Potencies of inconclusive entries are left out as doubtful fits.
Test: qHTS of TDP-43 Inhibitors; also: nearly all actives have a fitted effect of over 50% in size; as to growth rescue (activation): % of control where 0% means no effect
Settings: TDP-43 expressing yeast growth rescue, BacTiter-Glo, 24 h; growth rescue (activation): at 46.1 µM (top of the series) unless noted
How it was run: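 In this qHTS, compounds that restore growth of yeast expressing TDP-43 appear as activators. Cells (OD600=0.02, galactose medium, raffinose-pregrown) are incubated with compound 24 hr at 30 deg C and growth is quantified by BacTiter-Glo.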
Potency is read from the fitted curve at half-maximal effect; tags tell the direction and shape of the fitted curve.

Structure (SMILES)	growth rescue (activation)	Potency
COc1cccc(NC2=NCCCCC2)c1	inactive: -2.88%	–
CCOc1ccc(/C=C(\C#N)C(=O)NCC2CCCO2)cc1OCC (stereo unspecified)	–	inconclusive [activator, partial curve]
COc1ccc(-n2cc(C(=O)NCCc3cc(OC)ccc3OC)c3ccccc3c2=O)cc1	inactive: 27.8%	–
CCC(C(=O)Nc1cccc(-c2nc3cccnc3s2)c1C)c1ccccc1 (stereo unspecified)	inactive: -2.05%	–
CCOC(=O)CCNC(=O)N1CCC(CCOc2ccccc2)(C(=O)OCC)CC1	–	inconclusive [activator, single point]
CCOC(=O)c1c(C)[nH]c(C)c1S(=O)(=O)N1CCCC(C(=O)NCc2ccc(N(C)C)cc2)C1 (stereo unspecified)	inactive: 0%	–
CC1(C(=O)NCc2ccccc2Br)CCN1C(=O)Cc1ccc(-c2ccccc2)cc1 (stereo unspecified)	–	inconclusive [activator, partial curve]
COC(=O)c1cccc(NC(=O)/C(=C\c2ccco2)NC(=O)c2ccco2)c1	–	inconclusive [activator, full curve, poor fit]
CC1=C(C(=O)N2CCOCC2)CC(CC(=O)NCCCN(C)C)C(=O)N1Cc1ccc(F)cc1 (stereo unspecified)	–	inconclusive [activator, full curve]
COc1cccc(CNC(=O)Cn2nc(-c3ccc(Cl)cc3)ccc2=O)c1	–	inconclusive [activator, partial curve, poor fit]
CC(=O)N1c2ccccc2N=C(c2ccc3c(c2)OCO3)C1C(=O)NCc1ccccc1 (stereo unspecified)	–	inconclusive [activator, single point]
S=C(NCc1ccccc1)NCc1ccccc1Cl	–	inconclusive [activator, single point]
Cc1ccc(-n2c(=O)c3c4c(sc3n(Cc3cc(=O)n5ccccc5n3)c2=O)CCC4)cc1C	–	inactive
COc1ccc(CNC(=O)Cn2ccc3cc(S(=O)(=O)N4CCCCC4)ccc32)cc1OC	inactive: 3.42%	–
Clc1ccccc1-c1nnc(COc2ccccc2)o1	inactive: 8.76%	–
CC(C)CNC(=S)N1CCC(c2nc(-c3ccc(F)cc3)no2)CC1	–	inconclusive [activator, single point]
Cc1c(C(=O)OC(C)C(=O)N(C)Cc2ccccc2)oc2ccccc12 (stereo unspecified)	–	active: 35.5 µM
O=C(CSC1=NCCS1)c1ccc(Cl)cc1	–	inconclusive [activator, single point]
Cc1ccc(NC(=S)NCc2ccc3c(c2)OCO3)cc1C	–	inconclusive [activator, single point]
Cc1nc2nc(NC(=O)c3ccc(C(C)(C)C)cc3)[nH]n2c(=O)c1Cc1ccccc1	inactive: -13.1%	–
Cc1cc(Cl)ccc1OCCCC(N)=O	–	inconclusive [activator, single point]
CCCCC(=O)Nc1ccc(NC(=O)c2ccc(C)c([N+](=O)[O-])c2)cc1OC	–	inconclusive [activator, single point]
O=C(CCOc1ccccc1)N(Cc1cccnc1)c1nc2ccc(Cl)cc2s1	inactive: 20.1%	–
Cn1c(SCc2nc(-c3ccc(Cl)cc3)no2)nnc1-c1ccco1	–	active: 12.6 µM

Structure (SMILES)	growth rescue (activation)	Potency
COc1ccc(OC)c(NC(=O)CN2C(=O)CC(C)Sc3ccccc32)c1 (stereo unspecified)	–	inconclusive [activator, single point]
NC(=O)COc1ccc(/C=C2\C(=O)ON=C2c2ccccc2)cc1	–	active: 22.4 µM
O=C(COc1ccc(F)cc1Cl)Nc1cccc(S(=O)(=O)N2CCCC2)c1	–	active: 35.5 µM
O=C(O)CN1C(=O)CCS(=O)c2ccccc21 (stereo unspecified)	inactive: 16.1%	–
O=C(CSc1ncnc2c1oc1ccccc12)Nc1nccs1	–	inconclusive [activator, single point]
CSc1ncc(C(=O)Nc2ccc(C)c(Cl)c2)c(-c2ccccc2)n1	inconclusive: 41.4% [activator]	–
Cc1cc(SCc2ccc(Br)cc2)nc(=O)[nH]1	–	inconclusive [activator, partial curve, poor fit]
COc1ccccc1CC1(C)C(=O)Nc2c(Cl)cccc21 (stereo unspecified)	–	inconclusive [activator, single point]
CCOC(=O)c1ccc(-c2ccc(C(=O)Nc3cccnc3)o2)cc1	–	inconclusive [activator, partial curve]
Cc1cc(C)cc(NC(=O)COC(=O)CCCNC(=O)c2ccc(Cl)cc2)c1	inactive: 5.54%	–
CC1=C(C(=O)OCC2CCCCC2)C(c2ccc(Cl)cc2)CC(=O)N1 (stereo unspecified)	inactive: 10.5%	–
CCn1c(-c2c(Cl)c(C)nn2C)n[nH]c1=S	–	inconclusive [activator, full curve, poor fit]
CCNC(=O)c1c(O)c2ccccc2[nH]c1=O	inactive: -26.6%	–
NC(=O)c1ccc(NC(=O)COC(=O)c2c3c(nc4ccccc24)/C(=C\c2ccc4c(c2)OCO4)CCC3)cc1	–	inconclusive [activator, single point]
CCCn1c(SCC(=O)c2cc(OC)ccc2OC)nc2c1c(=O)n(C)c(=O)n2C	–	inconclusive [activator, partial curve, poor fit]
CN(Cc1ccccc1)C(=O)c1c[nH]c2ccc(S(=O)(=O)N3CCOCC3)cc2c1=O	inactive: 19.7%	–
COc1ccc(S(=O)(=O)Nc2ccc3oc4c(c3c2)CCCC4)cc1	–	active: 35.5 µM
O=C(OC(C(=O)NCc1ccc2c(c1)OCO2)c1ccccc1F)c1ccco1 (stereo unspecified)	–	inconclusive [activator, single point]
COc1ccc(OC)c(C2=NOC(C(=O)N3CCN(c4ccccc4)CC3)C2)c1 (stereo unspecified)	–	inconclusive [activator, partial curve]
Cn1c(=O)c2cc(NC(=S)NC3CCCCC3)ccc2n1Cc1ccc(F)cc1	inactive: 28.3%	–
CCOC(=O)c1c(NC(=O)COC(=O)Cn2c(C)nc3ccccc32)sc2c1CCCC2	–	inconclusive [activator, single point]
COc1ccc(/C=C2\SC(N3CCc4ccccc4C3)=NC2=O)cc1	–	inconclusive [activator, single point]
O=C(NCc1c(Cl)cccc1Cl)c1[nH]c(C(F)(F)F)nc1-c1ccccc1	–	inconclusive [activator, full curve, poor fit]
COc1ccc(NC(=S)/N=C(\N)Nc2nc(C)c3ccc(C)cc3n2)cc1	–	inconclusive [activator, partial curve]

Structure (SMILES)	growth rescue (activation)	Potency
O=C(/C=C/c1cccnc1)/C=C/c1cccnc1	–	inconclusive [activator, single point]
COc1cccc(-c2nc(C(=O)NCC3CCCO3)cc3c2[nH]c2ccccc23)c1 (stereo unspecified)	–	active: 20 µM
Cc1c(C(=O)N2CCN(c3ccccc3)CC2)oc2c(F)cccc12	–	active: 14.1 µM
CCN1CCN(C(=O)c2ccc(C(F)(F)F)cc2)CC1	inactive: 21%	–
COC(=O)c1scc(-c2ccc(C)cc2)c1S(=O)(=O)N1CCN(c2ccccc2)CC1	–	inconclusive [activator, partial curve]
O=C1c2ccccc2C(=O)N1CCc1nc(-c2ccc(Cl)cc2)no1	–	inconclusive [activator, full curve]
Cc1nn(-c2ccc(N3CCCCC3)nn2)c(C)c1CCC(=O)Nc1ccc(F)cc1F	inactive: -13.1%	–
CCc1ccccc1NC1c2ccccc2C(=O)N1Cc1ccco1 (stereo unspecified)	–	inconclusive [activator, partial curve]
O=C(CCSCc1cccc(Cl)c1)N1CCN(c2ccc(Cl)cc2)CC1	–	inconclusive [activator, partial curve]
CSc1nnc2c3ccccc3n(CCc3ccccc3)c2n1	–	inconclusive [activator, partial curve]
O=C(c1cccs1)N1CCN(c2nnc(-c3ccccc3)c3ccccc23)CC1	–	active: 17.8 µM
O=S1(=O)CC/C(=N\Nc2ccccc2)c2ccsc21	–	inconclusive [activator, single point]
COc1cc([N+](=O)[O-])ccc1NC(=S)Nc1cccc(C(=O)O)c1	–	inconclusive [activator, single point]
Cc1ccccc1C(=O)N1CC(=O)Nc2ccc(Cl)cc2C1c1ccccc1 (stereo unspecified)	inactive: 8.86%	–
COc1ccc2ncc(S(=O)(=O)c3ccccc3)c(N3CCN(c4ccccc4)CC3)c2c1	–	active: 15.8 µM
Cc1ccsc1C1NC(=O)c2ccccc2N1 (stereo unspecified)	inactive: 16.4%	–
CCOc1ccc(-c2nc(N)ncc2-c2ccccc2)c(O)c1	–	inconclusive [activator, partial curve]
O=[N+]([O-])c1cccc(COc2ccccc2CO)c1	–	inconclusive [activator, partial curve]
CC(C)(C)NC(=O)C(c1ccc(-c2ccccc2)cc1)N(C[C@H]1CC[C@@H]([C@@H]2CC[C@H](CO)O2)O1)C(=O)c1ccc(C(C)(C)C)cc1 (stereo partly specified)	–	inconclusive [activator, full curve, poor fit]
Oc1ccc(-c2csc(-c3c[nH]c4ccccc34)n2)c(O)c1	–	inconclusive [activator, partial curve]
Cc1c(C(=O)N(C)C(C)c2ccccn2)oc2c(F)cccc12 (stereo unspecified)	–	inconclusive [activator, partial curve]
Oc1ccc2ccccc2c1N=Nc1ccccn1	inconclusive: -74.8% [activator]	–
COc1ccc(Cl)cc1NC(=O)C(C)Sc1nc2c(c(=O)[nH]1)CCCC2 (stereo unspecified)	–	inconclusive [activator, partial curve]

— PubChem BioAssay AID652104 (National Center for Advancing Translational Sciences (NCATS), 2013)
